In PubChem BioAssay AID1476 (National Center for Advancing Translational Sciences (NCATS), 2009):
The whole screen tested about 200,000 compounds, of which about 4,500 (2.2%) were called active. Inconclusive results, whose numbers are uncertain, are shown with a selection of clear calls. Calls come from the whole dose curve; as a rule, active = well fitted inhibition curve with a large enough effect; inconclusive = small, poorly fitted or top-dose-only effect, or effect the other way; inactive = flat fitted curve, though single readings scatter. A potency beside an inconclusive call is a rough fit, not a confirmed value.

target: Cruzipain (Trypanosoma cruzi) (UniProt P25779); experiment: qHTS Assay for Promiscuous and Specific Inhibitors of Cruzain (without detergent); details: purified cruzain, Z-FR-AMC fluorescence, no detergent; note: nearly all actives have a fitted effect of over 40% in size;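 for max response, negative = inhibition: plate controls were enzyme without inhibitor for no effect and buffer without enzyme for full effect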
In short: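 Detergent-free condition (0.00005% Triton X-100) in acetate buffer pH 5.5 with DTT. 1.5 nM enzyme and compound were pre-mixed 15 min, then 2 uM Z-FR-AMC substrate added; reaction progress from fluorescence change between first and third reads (60 s).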
Potency is the fitted concentration of half-maximal effect; tags give direction and shape of the fitted curve.

Sequence of UniProt P25779 (P25779 whole entry, looked up): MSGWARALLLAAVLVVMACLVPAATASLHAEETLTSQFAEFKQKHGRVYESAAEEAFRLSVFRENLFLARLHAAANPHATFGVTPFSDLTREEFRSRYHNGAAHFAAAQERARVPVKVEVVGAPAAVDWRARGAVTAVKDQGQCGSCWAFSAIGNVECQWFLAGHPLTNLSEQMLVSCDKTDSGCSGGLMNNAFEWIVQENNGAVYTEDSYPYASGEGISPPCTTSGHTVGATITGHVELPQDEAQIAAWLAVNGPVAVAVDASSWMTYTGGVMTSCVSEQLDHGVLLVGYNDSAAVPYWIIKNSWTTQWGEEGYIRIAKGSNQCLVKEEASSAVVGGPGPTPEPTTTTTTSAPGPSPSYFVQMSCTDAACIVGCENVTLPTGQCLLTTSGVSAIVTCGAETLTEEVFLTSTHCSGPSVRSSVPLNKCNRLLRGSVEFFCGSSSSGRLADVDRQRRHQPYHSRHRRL

Row | SMILES | Potency | max response, negative = inhibition
1 | CC1=Nc2ccccc2N=C(NC(=O)CSc2nnnn2-c2ccccc2)C1c1ccccc1 (stereo not drawn) | inconclusive: 39.8 µM [inhibitor, single point] | –
2 | CCCCN(Cc1ccccc1)S(=O)(=O)c1cc(Br)cc2c1N(C(C)=O)C(C)C2 (stereo not drawn) | inconclusive: 25.1 µM [activator, single point] | –
3 | COc1ccc(OC(=O)c2nc(SCc3ccc(C)cc3)ncc2Cl)cc1 | active: 20 µM | –
4 | CC1CCCN(c2csc3ccc(F)cc3c2=O)C1 (stereo not drawn) | – | inactive: 1.1%
5 | O=C(Nc1cn(-c2ccccc2)nc1-c1ccc(Cl)cc1)c1ccccc1 | inconclusive: 39.8 µM [inhibitor, single point] | –
6 | CCC(Cc1ccccc1)NC(=O)c1ccc2nc(N3CCC(C)CC3)sc2c1 (stereo not drawn) | – | inactive: 1.25%
7 | CC1=C(OC(=O)c2ccccc2)C(C)(C)C(c2ccc(Br)cc2)OC1=O (stereo not drawn) | inconclusive: 25.1 µM [inhibitor, single point] | –
8 | O=C(OC1CCOC1=O)c1cccc(S(=O)(=O)Nc2ccc(F)cc2)c1 (stereo not drawn) | inconclusive: 39.8 µM [activator, single point] | –
9 | CN(c1ccccc1)S(=O)(=O)c1ccc(NC(=S)NC(=O)c2ccccc2)cc1 | inconclusive: 25.1 µM [inhibitor, single point] | –
10 | COC(=O)/C=C1\OC(c2ccccc2)=CC1=O | inconclusive: 3.98 µM [inhibitor, single point] | –
11 | CCn1c(=N)c(C(=O)NCc2cccnc2)cc2c(=O)n3cccc(C)c3nc21 | inconclusive: 39.8 µM [inhibitor, single point] | –
12 | COc1ccccc1-c1nnc(Nc2nc3c(OC)cccc3s2)o1 | active: 31.6 µM | –
13 | CC1CCCC(NC(=O)c2ccc3c(c2)N(Cc2ccccc2)C(=O)CS3=O)C1C (stereo not drawn) | inconclusive: 39.8 µM [activator, single point] | –
14 | Cc1ccc(N2CC(C(=O)Nc3ccc4c(c3)OCO4)CC2=O)cc1 (stereo not drawn) | inconclusive: 31.6 µM [inhibitor, single point] | –
15 | Cc1ccc(OC(=O)c2ccc(S(=O)(=O)N(C)C)cc2)c(-n2nc3ccccc3n2)c1 | inconclusive: 39.8 µM [inhibitor, single point] | –
16 | O=C(CSc1nc2c(sc3ccccc32)c(=O)n1-c1ccccc1)NCc1ccco1 | inconclusive: 31.6 µM [inhibitor, single point] | –
17 | O=C(CSc1ncnc2scc(-c3ccccc3)c12)N1CCN(c2ccccc2F)CC1 | active: 31.6 µM | –
18 | O=C(CCCOc1ccc(Cl)cc1Cl)NNC(=O)c1ccc(NC(=O)c2ccccc2)cc1 | active: 3.98 µM | –
